Results from PubChem BioAssay AID493208 (National Center for Advancing Translational Sciences (NCATS), 2011).
Hit rate of the full screen: of about 44,000 compounds, about 340 (0.77%) were called active. Roughly 5% stayed inconclusive and do not appear here. The call rests on the fitted dose curve; in most records, active means well fitted inhibition curve with a large enough effect; inconclusive means small, poorly fitted or top-dose-only effect; inactive means flat fitted curve, though single readings scatter. Some of the results follow.

Experiment: Acumen qHTS Assay for Inhibitors of the mTORC1 Signaling Pathway in MEF (Tsc2-/-, p53-/-) Cells: Sytravon;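 further: plate controls were DMSO for no effect and rapamycin for full effect; nearly all actives have a fitted effect of over 50% in size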
Settings: phospho-rpS6 immunofluorescence/PI, 24 h; series mostly up to 38.3 µM; activity change, negative = inhibition: at the top concentration
In short: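 Read-out: phospho-S6 Alexa-488 intensity over PI intensity per well, scored as % active cells using thresholds from rapamycin (7.5 nM) and DMSO controls. Tsc2-/-, p53-/- MEFs exposed to compound for 24 h; PI cell count recorded as viability.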

Activity change, negative = inhibition, inactive:
COc1ccc(N2CCN(C(=O)c3cnc(N4CCOCC4)c4ccccc34)CC2)cc1 -13.6%
COc1ccc(C)cc1NC(=O)c1nnn(CC(=O)Nc2c(C)cccc2C)c1N -4.73%
Cc1ccc(C)c(S(=O)(=O)c2nnn3c2nc(NC2CCCC2)c2sccc23)c1 0.0273%
CCCCN(CC)C(=O)c1ccc2c(c1)NC(=O)c1ccccc1S2 -6.39%
CCc1cccc(NC(=O)c2cc3c(=O)oc4ccc(C)cc4c3s2)c1 8.14%
COc1ccc(CNC(=O)C(CC(C)C)NS(=O)(=O)c2ccc3c(c2)oc(=O)n3C)cc1 (stereo unspecified) 0.344%
Cc1ccc(S(=O)(=O)c2cn(Cc3ccccc3)c3cc(N4CCCC4)c(F)cc3c2=O)c(C)c1 -7.49%
CSc1nnc(NC(=O)c2cc(=O)c3cc(C)c(C)cc3o2)s1 -0.132%
CCOc1c(CNCCSc2nnnn2C)cccc1OC -19.3%
COc1ccc(OC)c([C@@H]2Nc3ccc(C(=O)O)cc3[C@@H]3C=CC[C@@H]32)c1 -0.233%
Cc1cccc(C)c1NC(=O)C(=O)NCC(c1ccc2c(c1)OCO2)N1CCN(C)CC1 (stereo unspecified) 1.22%
Cc1ccc(Cn2c(=O)n(Cc3ccc(C(=O)NC4CCN(Cc5ccccc5)CC4)cc3)c(=O)c3ccccc32)cc1 -28%
CCc1cccc(NC(=O)C2CCCN2S(=O)(=O)c2ccc3nc(-c4ccccc4)[nH]c3c2)c1 (stereo unspecified) -8.82%
CC(=O)c1ccc(NC(=O)CCn2cccn2)cc1 -5.01%
O=C(c1ccc(Br)cc1)N(Cc1ccco1)c1ccccn1 2.44%
CN1C(=O)Cc2cc(S(=O)(=O)NCc3ccccc3Cl)ccc21 -9.87%
CCc1ccc(NC(=O)Cn2c(=O)n(-c3cccc(OC)c3)c(=O)c3c(C)c(C(=O)N(C)C)sc32)cc1 1.72%
Cc1ccc(-n2c(C)nc3c(cnn3-c3ccccc3)c2=O)cc1 -4.46%
CCCc1ccc(OCc2ccc(C(=O)Nc3ccccc3C(=O)OC)o2)cc1 -7.71%
CCc1ccc(CNC(=O)c2cccc(-n3c(C)nc4cccnc43)c2)cc1 -13%
Cc1ccc2oc(C(=O)N3CCC(c4nc5ccccc5s4)CC3)c(C)c2c1 -22.4%
COc1ccc(N(CC(=O)N2CCCCC2)S(=O)(=O)c2ccc(OC)c(OC)c2)cc1 3.84%
COc1ccc(C2=C(N3CCN(c4cccc(C)c4C)CC3)c3ccccc3C2=O)cc1 0.771%
Cc1ccc(NC(=O)CC2Oc3ccccc3NC2=O)cc1C (stereo unspecified) 0.753%
COc1ccc(CCNC(=O)CN2C(=O)COc3ccc(S(=O)(=O)N4CCCC4)cc32)c(OC)c1 1.75%
Cc1c(C(=O)NCc2cccc(Cl)c2)sc2nc3n(c(=O)c12)CCCC3 7.42%
COc1ccc(-c2cnnn2-c2ccc(NC(=O)c3ccccc3OC)cc2)cc1 -25.3%
Cc1c(C(=O)NCc2cccc(Br)c2)oc2ccc3c(c12)C(=O)CC(C)(C)O3 -3.12%
CCN(CC)CCCNC(=O)c1ccc(Cn2c(SCc3ccccc3)nc3cccnc32)cc1 -6.78%
Cn1c(=O)n(Cc2c(F)cccc2Cl)c(=O)c2c1nc1n2CCN1c1ccc(F)cc1 -17.5%
Nc1nn(-c2ccccc2)nc1C(=O)OCc1ccc(Cl)cc1 -2.84%
COc1ccc(-c2nc3sc(CCNC(=O)C(=O)Nc4cccc(NC(C)=O)c4)c(C)n3n2)cc1 -0.0876%
COc1c(C)cccc1C(=O)Nc1ccc(-c2nc3ccccc3s2)c(Cl)c1 14.8%
CC1=C(C(=O)NCc2ccccc2F)C2(CCCCC2)OC1=O -1.72%
Cc1ccc(CCNC(=O)C2CCCN(c3nnc(C)c4c(C)n(-c5ccccc5)nc34)C2)cc1 (stereo unspecified) -15.5%
COc1ccc(-c2cn3nc(N4CCCC(C(=O)NCc5ccc(Cl)cc5)C4)sc3n2)cc1 (stereo unspecified) -7.36%
O=C(Nc1ccccc1Cl)N1CCC(CN2CCCC2)CC1 5.17%
CC1=C(c2ccc(F)cc2)S(=O)(=O)N=C1N1CCC(C(=O)NCCc2cccc(C)c2)CC1 -3.46%
COc1cccc(-c2nc(CS(=O)(=O)CC(=O)NCc3cccc(Cl)c3)c(C)o2)c1 -10.6%
Cc1ccc(CSc2ncc(Cl)c(C(=O)Nc3nnc(C)s3)n2)cc1 -0.393%
O=C(NCc1ccc2c(c1)CCN2C(=O)c1ccccc1)Nc1cccc(C(F)(F)F)c1 -20%
Cc1ccccc1OCCSc1nc2ccc(NC(=O)c3cccc(F)c3)cc2s1 -8.38%
COc1ccc(Cn2ccnc2SCC(=O)Nc2nc3ccccc3s2)cc1 2.58%
COc1cc2ncc3c(-c4ccc(C)cc4)nn(-c4ccc(F)cc4F)c3c2cc1OC 11.3%
Cc1ccc(NC(=O)CN2C(=O)c3cccnc3Oc3ccc(Cl)cc32)cc1 0.575%
CCOC(=O)c1c(C)n(-c2ccccc2)c2ccc(OC(=O)COc3ccc(Cl)cc3)cc12 -17%
Cc1ccccc1-c1nc(CN2CCC(C(=O)NCc3ccc(F)cc3)CC2)c(C)o1 -7.27%
CC(=O)c1ccc(NC(=O)c2ccc3c(c2)N(Cc2cccc(Cl)c2)C(=O)c2ccccc2S3=O)cc1 (stereo unspecified) -0.0939%
Cc1c(C(=O)NCc2ccccc2Cl)sc2ncnc(N(C)C3CCCCC3)c12 -5.15%
Cc1ccn2c(Nc3ccc4c(c3)OCCO4)c(-c3ccc(C)o3)nc2c1 -8.24%
Cc1cc(Nc2ccccc2C)n2nc(Cc3ccc(Cl)cc3)nc2n1 -0.908%
COc1ccc(NC(=O)c2cc3c(s2)-c2c(C)cccc2OC3)cc1Cl -2.81%
CCNC(=O)C1CCN(S(=O)(=O)c2ccc3c(c2)CCCN3C(C)=O)CC1 -0.277%
CCCN(CCC)c1ccc(C2N=C(N)Nc3nc4ccccc4n32)cc1 (stereo unspecified) -3.53%
Cn1c(=O)oc2cc(S(=O)(=O)CCC(=O)N3CCN(c4cccc(Cl)c4)CC3)ccc21 0%
O=C(NCc1ccccc1)c1ccc(NC(=O)N2CC3CCCN3c3ccccc32)cc1 (stereo unspecified) -8.27%
Cc1ccc(S(=O)(=O)c2nnn3c2nc(NCc2ccc4c(c2)OCO4)c2sccc23)cc1C 4.35%
CCc1ccc(NC(=O)CN2C(=O)c3cccc4cccc2c34)cc1 1.18%
CCCCNC(=O)CCCCCn1c(=O)[nH]c2ccccc2c1=O -4.99%
COc1ccc(Br)cc1CNC(=O)c1cnc2sc(N3CCC(C)CC3)nn2c1=O -3.7%
Cc1ccc(C)c(N2CCN(S(=O)(=O)c3cc(C(=O)Nc4ccc(Oc5ccccc5)cc4)ccc3F)CC2)c1 0%
